Assay results reported in patent US9650358B2 (priority 2013, dated 2017).
pEC50: −log10 of the molar value.

Each molecule was assayed on H929 cells (assay: cells). Details: Homo sapiens, NCI-H929, 24 h, read-out: H929 viability EC50.
Work on `Fc1cccc(Cn2cnc3ccc(-c4cc(N[C@H]5CC[C@H](NCCCOCc6ccccc6)CC5)ncc4Cl)cc32)c1` [Example 240, trans-N-[3-(benzyloxy)propyl]-N′-{5-chloro-4-[1-(3-fluorobenzyl)-1H-benzimidazol-6-yl]pyridin-2-yl}cyclohexane-1,4-diamine] yielded a pEC50 of 6.32. `O=C(Nc1cc(-c2cnc3nnn(Cc4cccc(F)c4)c3n2)c(Cl)cn1)[C@@H]1CCCNC1` [Example 247, (3R)—N-{5-chloro-4-[1-(3-fluorobenzyl)-1H-[1,2,3]triazolo[4,5-b]pyrazin-6-yl]pyridin-2-yl}piperidine-3-carboxamide] gave a pEC50 of 5.82. Work on `O=C(Nc1cc(-c2ccc3nnn(CC4CCOCC4)c3c2)c(Cl)cn1)[C@@H]1CCCNC1` [Example 248, (3R)—N-{5-chloro-4-[1-(tetrahydro-2H-pyran-4-ylmethyl)-1H-benzotriazol-6-yl]pyridin-2-yl}piperidine-3-carboxamide] yielded a pEC50 of 5.68. With `Fc1cccc(Cn2ccc3ncc(-c4cc(NC5CC6(CCNC6)C5)ncc4Cl)cc32)c1` (centres unmarked) [Example 249, N-{5-chloro-4-[1-(3-fluorobenzyl)-1H-pyrrolo[3,2-b]pyridin-6-yl]pyridin-2-yl}-6-azaspiro[3.4]octan-2-amine] the pEC50 was 6.02. `NC1CCCC(Nc2cc(-c3ccc4ncn(Cc5cccc(F)c5)c4c3)c(Cl)cn2)C1` (centres unmarked) [Example 250, N-{5-chloro-4-[1-(3-fluorobenzyl)-1H-benzimidazol-6-yl]pyridin-2-yl}cyclohexane-1,3-diamine] gave a pEC50 of 6.14. Molecule `O=C(Nc1cc(-c2ccc3ncn(CC4CCOCC4)c3c2)c(Cl)cn1)c1cn[nH]c1` [Example 266, N-{5-chloro-4-[1-(tetrahydro-2H-pyran-4-ylmethyl)-1H-benzimidazol-6-yl]pyridin-2-yl}-1H-pyrazole-4-carboxamide] has a pEC50 of 6.46. Work on `O=C(Nc1cc(-c2ccc3ncn(CC4CCOCC4)c3c2)c(Cl)cn1)C1CC2(CNC2)C1` [Example 268, N-{5-chloro-4-[1-(tetrahydro-2H-pyran-4-ylmethyl)-1H-benzimidazol-6-yl]pyridin-2-yl}-2-azaspiro[3.3]heptane-6-carboxamide] yielded a pEC50 of 6.17. With `O=C1CC(C(=O)Nc2cc(-c3ccc4ncn(CC5CCOCC5)c4c3)c(Cl)cn2)C1` [Example 270, N-{5-chloro-4-[1-(tetrahydro-2H-pyran-4-ylmethyl)-1H-benzimidazol-6-yl]pyridin-2-yl}-3-oxocyclobutanecarboxamide] the pEC50 was 6.23. `O=C(Nc1cc(-c2ccc3ncn(Cc4cccc(F)c4)c3c2)c(Cl)cn1)C1CCc2nncn2C1` (centres unmarked) [Example 275, N-{5-chloro-4-[1-(3-fluorobenzyl)-1H-benzimidazol-6-yl]pyridin-2-yl}-5,6,7,8-tetrahydro[1,2,4]triazolo[4,3-a]pyridine-6-carboxamide] gave a pEC50 of 5.82. For `O=C(Nc1cc(-c2ccc3ncn(Cc4cccc(F)c4)c3c2)c(Cl)cn1)C1CCc2nccn2C1` (centres unmarked) [Example 276, N-{5-chloro-4-[1-(3-fluorobenzyl)-1H-benzimidazol-6-yl]pyridin-2-yl}-5,6,7,8-tetrahydroimidazo[1,2-a]pyridine-6-carboxamide], the pEC50 was 6.92. For `NS(=O)(=O)CC(=O)Nc1cc(-c2ccc3ncn(Cc4cccc(F)c4)c3c2)c(Cl)cn1` [Example 278, N-{5-chloro-4-[1-(3-fluorobenzyl)-1H-benzimidazol-6-yl]pyridin-2-yl}-2-sulfamoylacetamide], the pEC50 was 6.38. With `CN1CCN(S(=O)(=O)CC(=O)Nc2cc(-c3ccc4ncn(Cc5cccc(F)c5)c4c3)c(Cl)cn2)CC1` [Example 279, N-{5-chloro-4-[1-(3-fluorobenzyl)-1H-benzimidazol-6-yl]pyridin-2-yl}-2-[(4-methylpiperazin-1-yl)sulfonyl]acetamide] the pEC50 was 5.77. With `O=C1CC[C@H](C(=O)Nc2cc(-c3ccc4ncn(Cc5cccc(F)c5)c4c3)c(Cl)cn2)N1` [Example 280, N-{5-chloro-4-[1-(3-fluorobenzyl)-1H-benzimidazol-6-yl]pyridin-2-yl}-5-oxo-D-prolinamide] the pEC50 was 6.54. In the case of `O=C(Nc1cc(-c2ccc3ncn(CC4CCOCC4)c3c2)c(Cl)cn1)C1CCc2nncn2C1` (centres unmarked) [Example 283, N-{5-chloro-4-[1-(tetrahydro-2H-pyran-4-ylmethyl)-1H-benzimidazol-6-yl]pyridin-2-yl}-5,6,7,8-tetrahydro[1,2,4]triazolo[4,3-a]pyridine-6-carboxamide], the pEC50 was < 5.00. `O=C(Nc1cc(-c2ccc3ncn(CC4CCOCC4)c3c2)c(Cl)cn1)C1CCc2nccn2C1` (centres unmarked) [Example 284, N-{5-chloro-4-[1-(tetrahydro-2H-pyran-4-ylmethyl)-1H-benzimidazol-6-yl]pyridin-2-yl}-5,6,7,8-tetrahydroimidazo[1,2-a]pyridine-6-carboxamide] gave a pEC50 of 5.55. For `NS(=O)(=O)CC(=O)Nc1cc(-c2ccc3ncn(CC4CCOCC4)c3c2)c(Cl)cn1` [Example 286, N-{5-chloro-4-[1-(tetrahydro-2H-pyran-4-ylmethyl)-1H-benzimidazol-6-yl]pyridin-2-yl}-2-sulfamoylacetamide], the pEC50 was 5.62. `CCS(=O)(=O)NCC(=O)Nc1cc(-c2ccc3ncn(CC4CCOCC4)c3c2)c(Cl)cn1` [Example 287, N-{5-chloro-4-[1-(tetrahydro-2H-pyran-4-ylmethyl)-1H-benzimidazol-6-yl]pyridin-2-yl}-N^2-(ethylsulfonyl)glycinamide] gave a pEC50 of 5.96. In the case of `O=C1CC[C@H](C(=O)Nc2cc(-c3ccc4ncn(CC5CCOCC5)c4c3)c(Cl)cn2)N1` [Example 288, N-{5-chloro-4-[1-(tetrahydro-2H-pyran-4-ylmethyl)-1H-benzimidazol-6-yl]pyridin-2-yl}-5-oxo-D-prolinamide], the pEC50 was 5.85. Work on `CN(C)S(=O)(=O)NCC(=O)Nc1cc(-c2ccc3ncn(CC4CCOCC4)c3c2)c(Cl)cn1` [Example 289, N-{5-chloro-4-[1-(tetrahydro-2H-pyran-4-ylmethyl)-1H-benzimidazol-6-yl]pyridin-2-yl}-N^2-(dimethylsulfamoyl)glycinamide] yielded a pEC50 of 5.62. `N[C@H]1C[C@@H](C(=O)Nc2cc(-c3ccc4ncn(CC5CCOCC5)c4c3)c(Cl)cn2)C1` [Example 292, cis-3-amino-N-{5-chloro-4-[1-(tetrahydro-2H-pyran-4-ylmethyl)-1H-benzimidazol-6-yl]pyridin-2-yl}cyclobutanecarboxamide] gave a pEC50 of 6.23. Molecule `N[C@H]1C[C@H](C(=O)Nc2cc(-c3ccc4ncn(CC5CCOCC5)c4c3)c(Cl)cn2)C1` [Example 293, trans-3-amino-N-{5-chloro-4-[1-(tetrahydro-2H-pyran-4-ylmethyl)-1H-benzimidazol-6-yl]pyridin-2-yl}cyclobutanecarboxamide] has a pEC50 of 6.55. For `NC1CC2(C1)CC(C(=O)Nc1cc(-c3ccc4ncn(CC5CCOCC5)c4c3)c(Cl)cn1)C2` (centres unmarked) [Example 296, 6-amino-N-{5-chloro-4-[1-(tetrahydro-2H-pyran-4-ylmethyl)-1H-benzimidazol-6-yl]pyridin-2-yl}spiro[3.3]heptane-2-carboxamide], the pEC50 was 6.05. `O=C(Cn1ccc2ncc(-c3cc(NC(=O)[C@@H]4CCCNC4)ncc3Cl)cc21)c1cccc(F)c1` [Example 303, (3R)—N-(5-chloro-4-{1-[2-(3-fluorophenyl)-2-oxoethyl]-1H-pyrrolo[3,2-b]pyridin-6-yl}pyridin-2-yl)piperidine-3-carboxamide] was tested, and the pEC50 was 5.74.
